Reference: PubChem BioAssay AID1745853 (National Center for Advancing Translational Sciences (NCATS), 2022)
The list shows a part of the results. Shown are side measurements of this screen, not its main read-out; they come without a call.

Tests used:
Assay in all cases: Primary Screen for Target Class Profiling of Small Molecule Inhibitors of Methyltransferases
[1] = biological target: Glycine N-methyltransferase (Homo sapiens) (UniProt Q14749); conditions: purified enzyme, MTase-Glo SAH luminescence; measured here: GNMT inhibition; at 40 µM; stronger effect = lower value
In short: (§1)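 Each enzyme was reacted with SAM and its substrate, with compounds tested once at 40 uM; SAH formed was read by MTase-Glo luminescence.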

[2] = biological target: Guanidinoacetate N-methyltransferase (Homo sapiens) (UniProt Q14353); conditions: purified enzyme, MTase-Glo SAH luminescence; measured here: GAMT inhibition; at 40 µM; stronger effect = lower value
In short: as §1

[3] = biological target: Histamine N-methyltransferase (Homo sapiens) (UniProt P50135); conditions: purified enzyme, MTase-Glo SAH luminescence; measured here: HNMT inhibition; at 40 µM; stronger effect = lower value
In short: as §1

[4] = biological target: Nicotinamide N-methyltransferase (Homo sapiens) (UniProt P40261); conditions: purified enzyme, MTase-Glo SAH luminescence; measured here: NNMT inhibition; at 40 µM; stronger effect = lower value
In short: as §1

[5] = biological target: Phenylethanolamine N-methyltransferase (Homo sapiens) (UniProt P11086); conditions: purified enzyme, MTase-Glo SAH luminescence; measured here: PNMT inhibition; at 40 µM; stronger effect = lower value
In short: as §1
% is set by controls: 0 for no effect and ±100 for the full control effect.

Cc1cc(C)cc(NC(=O)Cn2nc3n(CC(C)C)c(=O)c4ccc(C(=O)NCC(C)C)cc4n3c2=O)c1
activity change, negative = inhibition [1]: 10.1%
activity change, negative = inhibition [2]: 1.73%
activity change, negative = inhibition [3]: 11.1%
activity change, negative = inhibition [4]: 12.7%
activity change, negative = inhibition [5]: 9.83%

CC(C)Cn1c(=O)c2ccccc2n2c(SCC(=O)Nc3ccc4c(c3)OCCO4)nnc12
activity change, negative = inhibition [1]: -12.1%
activity change, negative = inhibition [2]: 2.01%
activity change, negative = inhibition [3]: 4.54%
activity change, negative = inhibition [4]: -11.3%
activity change, negative = inhibition [5]: -0.73%

CCOc1cc(C(C)(C)C)ccc1C1=N[C@@](C)(c2ccc(Cl)cc2)[C@@](C)(c2ccc(Cl)cc2)N1C(=O)N1CCN(CC(=O)N2CCOCC2)CC1
activity change, negative = inhibition [1]: -4.22%
activity change, negative = inhibition [2]: -8.35%
activity change, negative = inhibition [3]: 8.3%
activity change, negative = inhibition [4]: -32.3%
activity change, negative = inhibition [5]: 2.3%

CC(C)CCn1c(=O)c2ccc(C(=O)NCC(C)C)cc2n2c(=O)n(CC(=O)NC(C)(C)C)nc12
activity change, negative = inhibition [1]: -4.82%
activity change, negative = inhibition [2]: -0.642%
activity change, negative = inhibition [3]: -0.215%
activity change, negative = inhibition [4]: -10.3%
activity change, negative = inhibition [5]: -1.57%

O=C1NC2(CCN([S+](=O)([O-])c3cccc(C(F)(F)F)c3)C2)COc2ccccc21 (stereo not given)
activity change, negative = inhibition [1]: -1.46%
activity change, negative = inhibition [2]: 0.798%
activity change, negative = inhibition [3]: -0.663%
activity change, negative = inhibition [4]: -4.99%
activity change, negative = inhibition [5]: -4.84%

O=C(CCCn1nc(-c2ccccc2)c2ccccc21)N1CCN(c2ccc(F)cc2)CC1
activity change, negative = inhibition [1]: -1.84%
activity change, negative = inhibition [2]: -2.47%
activity change, negative = inhibition [3]: 5.16%
activity change, negative = inhibition [4]: 5.42%
activity change, negative = inhibition [5]: -2.41%

COCC1CN(C2CCC2)CC12CCN(C(=O)c1ccsc1)CC2 (stereo not given)
activity change, negative = inhibition [1]: -4.31%
activity change, negative = inhibition [2]: -5.52%
activity change, negative = inhibition [3]: -3.16%
activity change, negative = inhibition [4]: -9.49%
activity change, negative = inhibition [5]: -6.98%

COc1ccc(-c2[nH]nc3ncc(C(=O)N4CCC(c5ccccc5)CC4)nc23)c(C)c1
activity change, negative = inhibition [1]: -45.5%
activity change, negative = inhibition [2]: -38.9%
activity change, negative = inhibition [3]: -55.3%
activity change, negative = inhibition [4]: -37%
activity change, negative = inhibition [5]: -41.1%

O=C(NCc1ccc(Cl)nc1)c1cc2cccnn2n1
activity change, negative = inhibition [1]: -8.51%
activity change, negative = inhibition [2]: -9.22%
activity change, negative = inhibition [3]: -4.85%
activity change, negative = inhibition [4]: -17%
activity change, negative = inhibition [5]: -14%

CC1CCC(NC(=O)CCc2nnc3n(Cc4ccc(Cl)cc4)c(=O)c4ccccc4n23)CC1 (stereo not given)
activity change, negative = inhibition [1]: -6.7%
activity change, negative = inhibition [2]: 0%
activity change, negative = inhibition [3]: 3.03%
activity change, negative = inhibition [4]: -3.7%
activity change, negative = inhibition [5]: -1.77%

CCCN1C(=O)c2c(C(=O)Nc3cc(F)ccc3F)ncn2CC1(C)C(=O)NCc1ccc(C)cc1 (stereo not given)
activity change, negative = inhibition [1]: -0.545%
activity change, negative = inhibition [2]: 0%
activity change, negative = inhibition [3]: 3.06%
activity change, negative = inhibition [4]: 3.08%
activity change, negative = inhibition [5]: 6.28%

COCc1nc(NCCc2nc(-c3ccccn3)no2)c2cnn(C)c2n1
activity change, negative = inhibition [1]: -4.49%
activity change, negative = inhibition [2]: -6.74%
activity change, negative = inhibition [3]: -2.4%
activity change, negative = inhibition [4]: -27.4%
activity change, negative = inhibition [5]: -6.99%

CC1(C(=O)NC2CCCCCCC2)Cn2c(ccc2-c2ccco2)C(=O)N1Cc1ccco1 (stereo not given)
activity change, negative = inhibition [1]: -15%
activity change, negative = inhibition [2]: -1.69%
activity change, negative = inhibition [3]: -0.738%
activity change, negative = inhibition [4]: -9%
activity change, negative = inhibition [5]: -3.21%

COc1cccc(-c2ccc(C(=O)N3CCC(NC(=O)c4ccc(C(F)(F)F)cc4)CC3)cc2)c1
activity change, negative = inhibition [1]: -2.79%
activity change, negative = inhibition [2]: 2.73%
activity change, negative = inhibition [3]: 2.02%
activity change, negative = inhibition [4]: 0.674%
activity change, negative = inhibition [5]: 18.1%

CC1(C(=O)NC2CCCCCC2)Cc2ccccc2C(=O)N1C1CCCCC1 (stereo not given)
activity change, negative = inhibition [1]: -6.65%
activity change, negative = inhibition [2]: -0.491%
activity change, negative = inhibition [3]: -1.11%
activity change, negative = inhibition [4]: 2.24%
activity change, negative = inhibition [5]: -4.77%

CN(CCCN1C(=O)c2ccc(-c3ccco3)n2CC1(C)C(=O)NC1CCCC1)Cc1ccccc1 (stereo not given)
activity change, negative = inhibition [1]: -0.311%
activity change, negative = inhibition [2]: 0.054%
activity change, negative = inhibition [3]: 0.311%
activity change, negative = inhibition [4]: 6.77%
activity change, negative = inhibition [5]: 0.421%

CCOc1ccccc1CN1C(=O)c2cc3sc(CC)cc3n2CC1(C)C(=O)NC1CCCCC1 (stereo not given)
activity change, negative = inhibition [1]: 2.12%
activity change, negative = inhibition [2]: 5.9%
activity change, negative = inhibition [3]: 7.9%
activity change, negative = inhibition [4]: 1.02%
activity change, negative = inhibition [5]: 0.955%

COc1ccc(NC(=O)N2C[C@@H]3C[C@H](C2)c2c(NC(=O)C4CCCCC4)ccc(=O)n2C3)cc1
activity change, negative = inhibition [1]: -2.05%
activity change, negative = inhibition [2]: -2.94%
activity change, negative = inhibition [3]: 0.056%
activity change, negative = inhibition [4]: -3.02%
activity change, negative = inhibition [5]: 4.1%

CC1(C)S[C@@H]2[C@H](NC(=O)[C@H](NC(=O)N3CCN(S(C)(=O)=O)C3=O)c3ccccc3)C(=O)N2[C@H]1C(=O)O
activity change, negative = inhibition [1]: -4.26%
activity change, negative = inhibition [2]: -2.04%
activity change, negative = inhibition [3]: 6.36%
activity change, negative = inhibition [4]: -17%
activity change, negative = inhibition [5]: -0.891%

Cn1c(=O)cc(N2CCC[C@@H](N)C2)n(Cc2ccccc2C#N)c1=O
activity change, negative = inhibition [2]: 3.66%
activity change, negative = inhibition [4]: -13.4%
activity change, negative = inhibition [5]: 4.88%

CCOc1ccc(-c2nc(-c3cccc4c3CCC4NCCO)no2)cc1OCC (stereo not given)
activity change, negative = inhibition [1]: 5.16%
activity change, negative = inhibition [2]: 10.9%
activity change, negative = inhibition [3]: 8.59%
activity change, negative = inhibition [4]: -3.27%
activity change, negative = inhibition [5]: 2.95%

O=C(N[C@@H]1CN(Cc2ccccc2)C[C@H]1CO)c1cn[nH]c1
activity change, negative = inhibition [1]: -6.49%
activity change, negative = inhibition [2]: -3.17%
activity change, negative = inhibition [3]: -0.549%
activity change, negative = inhibition [4]: -4.39%
activity change, negative = inhibition [5]: -0.423%

O=C(CCc1nnc2n(Cc3ccccc3)c(=O)c3ccccc3n12)N1CCN(c2ccc(F)cc2)CC1
activity change, negative = inhibition [1]: -19.3%
activity change, negative = inhibition [2]: 2.42%
activity change, negative = inhibition [3]: -3.63%
activity change, negative = inhibition [4]: -11.5%
activity change, negative = inhibition [5]: -4.55%

C[C@@H]1CC[C@]2(C(=O)O[C@@H]3O[C@H](CO[C@@H]4O[C@H](CO)[C@@H](O[C@@H]5O[C@@H](C)[C@H](O)[C@@H](O)[C@H]5O)[C@H](O)[C@H]4O)[C@@H](O)[C@H](O)[C@H]3O)CC[C@]3(C)C(=CCC4[C@@]5(C)C[C@@H](O)[C@H](O)[C@@](C)(CO)C5CC[C@]43C)C2[C@H]1C (stereo not given in full)
activity change, negative = inhibition [1]: 0.362%
activity change, negative = inhibition [3]: 7.92%

COc1cccc(N2C(=O)c3cc(-c4ccccc4)nn3CC2(C)C(=O)NCc2ccccc2)c1 (stereo not given)
activity change, negative = inhibition [1]: 1.36%
activity change, negative = inhibition [2]: 1.08%
activity change, negative = inhibition [3]: 3.98%
activity change, negative = inhibition [4]: 5.33%
activity change, negative = inhibition [5]: -0.654%

NC1CCCCN(c2c(F)cc3c(=O)c(C(=O)O)cn(C4CC4)c3c2Cl)C1 (stereo not given)
activity change, negative = inhibition [1]: -0.75%
activity change, negative = inhibition [2]: 3.95%
activity change, negative = inhibition [3]: -14.9%
activity change, negative = inhibition [4]: -9.93%
activity change, negative = inhibition [5]: 2.27%

Cc1noc(C)c1CC(=O)N1CCCn2cc(-c3ccccc3F)nc21
activity change, negative = inhibition [1]: -3.36%
activity change, negative = inhibition [2]: -3.75%
activity change, negative = inhibition [3]: -2.29%
activity change, negative = inhibition [4]: -11.4%
activity change, negative = inhibition [5]: 1.05%

COc1ccc(CN2C(=O)c3cc4ccccc4n3CC2(C)C(=O)NC2CCCC2)cc1OC (stereo not given)
activity change, negative = inhibition [1]: 2.68%
activity change, negative = inhibition [2]: 4.1%
activity change, negative = inhibition [3]: 2.7%
activity change, negative = inhibition [4]: -3.79%
activity change, negative = inhibition [5]: 1.68%

CCCC1c2cccn2CCN1C(=O)NCCCOC (stereo not given)
activity change, negative = inhibition [1]: 3.38%
activity change, negative = inhibition [2]: 0.259%
activity change, negative = inhibition [3]: 6.15%
activity change, negative = inhibition [4]: 6.1%
activity change, negative = inhibition [5]: 7.04%

Cc1ccccc1CN1C(=O)c2nc3ccccc3n2CC1(C)C(=O)NC1CCC(C)CC1 (stereo not given)
activity change, negative = inhibition [1]: -2.92%
activity change, negative = inhibition [2]: 3.07%
activity change, negative = inhibition [3]: 0.144%
activity change, negative = inhibition [4]: 1.57%
activity change, negative = inhibition [5]: -5.19%

CCOc1ccccc1NC(=O)N1Cc2c(sc3c2CCN(C)C3)-n2cccc2C1CC (stereo not given)
activity change, negative = inhibition [1]: -6.66%
activity change, negative = inhibition [2]: 1.85%
activity change, negative = inhibition [3]: -4.14%
activity change, negative = inhibition [4]: -10.3%
activity change, negative = inhibition [5]: -3.96%

Cc1ccc(NC(=O)N2CCN(c3nnnn3-c3ccccc3)CC2)cc1
activity change, negative = inhibition [1]: -4.86%
activity change, negative = inhibition [2]: -5.47%
activity change, negative = inhibition [3]: -2.03%
activity change, negative = inhibition [4]: -17.4%
activity change, negative = inhibition [5]: 6.14%

CCCOc1ccc(CN2C(=O)c3cc4occc4n3CC2(C)C(=O)NC2CCCC(C)C2C)cc1 (stereo not given)
activity change, negative = inhibition [1]: 1.38%
activity change, negative = inhibition [2]: 0.049%
activity change, negative = inhibition [3]: 7.29%
activity change, negative = inhibition [4]: 0.756%
activity change, negative = inhibition [5]: 0.533%

COc1ccccc1-c1ccc(C(=O)N2CCC(C(=O)Nc3ccccc3Cl)CC2)cc1
activity change, negative = inhibition [1]: -1.65%
activity change, negative = inhibition [2]: -1.59%
activity change, negative = inhibition [3]: 0.109%
activity change, negative = inhibition [4]: -4.25%
activity change, negative = inhibition [5]: -0.296%

CCN(Cc1cc(Nc2nc(C)cn3c(-c4cn[nH]c4)cnc23)sn1)C(C)(C)CO
activity change, negative = inhibition [1]: -11.8%
activity change, negative = inhibition [2]: -18.8%
activity change, negative = inhibition [3]: -43.5%
activity change, negative = inhibition [4]: -17.4%
activity change, negative = inhibition [5]: -11.7%

CC[C@H]1CN(C(=O)C(C)(C)C)CC[C@H]1CC(=O)NCc1cccnc1
activity change, negative = inhibition [1]: -3.62%
activity change, negative = inhibition [2]: -7.36%
activity change, negative = inhibition [3]: 0.869%
activity change, negative = inhibition [4]: -6.33%
activity change, negative = inhibition [5]: 0.652%
